From PubChem BioAssay AID1159614 (National Center for Advancing Translational Sciences (NCATS), 2016)
Screen size: about 45,000 compounds; about 65 (0.1%) were called active. The call rests on the fitted dose curve; in most records, active means well fitted activation curve with a large enough effect; inconclusive means small, poorly fitted or top-dose-only effect; inactive means no such curve, though single readings can be large or run the other way. The list shows a part of the results.

Molecular target: Galactocerebrosidase (Homo sapiens) (UniProt P54803)
Assay: A Novel Cell-Based Assay to Identify Small Molecules for B -Galactocerebrosidase; further: 0% is about no effect; nearly all actives have a fitted effect of over 65% in size
Settings: 145M-Twi-hGALC-G270D cells, HMU-beta-Gal fluorescence, 48 h; series mostly up to 57.5 µM; activation: at the top concentration
Outline: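 qHTS, 1536-well; 145M-Twi-hGALC-G270D cells (WT line also made) in DMEM/F12 + 10% FBS; compound incubation on live cells; HMU-β-gal 0.1 mM final, pH 5.2, NaTC; carbonate stop; fluorescence increase = enhanced residual activity.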

UniProt P54803, sequence (P54803 whole entry, looked up): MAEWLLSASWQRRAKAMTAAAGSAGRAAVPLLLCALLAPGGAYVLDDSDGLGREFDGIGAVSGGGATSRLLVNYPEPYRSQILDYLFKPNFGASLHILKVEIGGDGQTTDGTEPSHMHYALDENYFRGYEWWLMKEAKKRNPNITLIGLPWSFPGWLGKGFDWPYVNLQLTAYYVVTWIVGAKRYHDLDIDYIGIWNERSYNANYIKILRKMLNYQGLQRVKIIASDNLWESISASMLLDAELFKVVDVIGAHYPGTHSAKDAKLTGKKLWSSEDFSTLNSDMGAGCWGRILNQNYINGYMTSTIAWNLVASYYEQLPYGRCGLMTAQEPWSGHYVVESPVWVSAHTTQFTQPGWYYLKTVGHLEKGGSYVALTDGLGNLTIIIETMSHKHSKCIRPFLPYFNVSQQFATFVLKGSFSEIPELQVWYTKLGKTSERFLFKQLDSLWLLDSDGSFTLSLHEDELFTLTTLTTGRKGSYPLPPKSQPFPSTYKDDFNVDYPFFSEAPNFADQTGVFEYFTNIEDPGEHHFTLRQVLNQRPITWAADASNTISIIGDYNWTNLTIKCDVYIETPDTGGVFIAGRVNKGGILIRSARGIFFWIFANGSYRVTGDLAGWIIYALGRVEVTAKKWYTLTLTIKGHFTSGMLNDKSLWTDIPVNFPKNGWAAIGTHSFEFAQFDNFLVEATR

activation, inactive:
O=C(Cn1nc(-c2ccccc2)c2c(c1=O)CCCC2)Nc1ccc(F)c(Cl)c1 -28.4%, COc1cccc(NC(=O)N(Cc2c[nH]c3ccccc23)C2CCCCCC2)c1 -12.4%, CN(C(=O)c1cc2c(Cl)nc3ccccc3c2s1)c1cccc(C(F)(F)F)c1 -8.94%, CCn1c(C(=O)Nc2c(C)cccc2C)cc2sc(Cl)cc21 -9.73%, CCn1c(=O)c2cc(C(=O)NC3CCC(C)CC3)sc2c2ccccc21 (stereo unspecified) -14%, Cc1ccccc1NS(=O)(=O)c1ccc2[nH]cc(C(=O)NC3CCCCC3)c(=O)c2c1 -11.5%, COc1ccc(NC(=O)c2cc3c(=O)n(Cc4cccs4)ccc3nc2C)cc1 -20.8%, Cc1ccc(NC(=O)c2c(NC(=O)c3ccc(F)cc3)sc3c2CCCC3)cc1C -17.8%, COc1ccc(-n2c(C)nnc2SCc2nc(-c3ccc(OC)c(OC)c3)no2)cc1 -15.3%, COc1ccc(OC)c(NC(=O)Cn2c(=O)n(-c3cccc(C)c3)c(=O)c3c2c2cc(C)ccc2n3C)c1 -0.64%, CCc1ccccc1N(C)C(=O)Cn1cnc2sc(C)c(S(=O)(=O)N3CCC(C)CC3)c2c1=O -12.1%, CCOc1ccc(-n2c(SCC(=O)Nc3cc(C)on3)nc3c([nH]c4ccccc43)c2=O)cc1 -14%, COc1cccc(CNC(=O)CCCn2nc(C)c3sc4ccccc4c3c2=O)c1 -5.59%, CCOC(=O)c1c(C)oc2nc(C)nc(N3CCN(c4cc(Cl)ccc4C)CC3)c12 -8.51%, CCOC(=O)c1cc(OC(=O)c2cc(OC)c(OC)c(OC)c2)n(-c2ccccc2)n1 -1.51%, COc1ccc(N(CC(=O)N2CCN(c3ccccc3)CC2)S(=O)(=O)c2c(C)nn(C)c2C)cc1 -8.41%, O=C(Cc1ccccc1)N(Cc1cccnc1)c1nc2c(Cl)cccc2s1 -0.843%, COc1ccc(-c2cc3nc(C)c(CCC(=O)NCc4ccccc4Cl)c(C)n3n2)c(OC)c1 -21.9%, COc1ccc(C)cc1NC(=O)Cn1c(=O)oc2cc(S(=O)(=O)N3CCCCC3)ccc21 -12.1%, Cc1ccc(Nc2ccc3cc(S(=O)(=O)N4CCCCC4)ccc3n2)cc1F -8.49%, CCn1cc2nc(SCC(=O)Nc3ccc(OC)c(Cl)c3)n(Cc3ccc(OC)cc3)c(=O)c2n1 0.83%, CCOC(=O)c1ccc(NC(=O)CSc2nc(-c3ccc(OC)cc3)cc(C(F)(F)F)c2C#N)cc1 -11.1%, CCc1nnc(SC(CC)C(=O)Nc2ccc(OC)c(Cl)c2)c2cc3occc3n12 (stereo unspecified) -15.5%, CCOc1ccc(NC(=O)NCCN2CCN(c3cccc(C)c3C)CC2)cc1 -16.6%, CCc1cccc(C)c1NC(=O)C1CCN(S(=O)(=O)c2c(C)noc2/C=C/c2c(C)cc(C)cc2C)CC1 -17.4%, N#Cc1nc(COc2ccccc2Cl)oc1NCCc1ccccc1 -13.1%, O=C(CCC1CCCC1)N1CCc2c([nH]c3ccccc23)C1c1ccc(F)cc1 (stereo unspecified) -8.63%, CC(=O)c1ccc(NC(=O)c2cn(-c3ccccc3)nc2-c2ccc(Br)cc2)cc1 -6.98%, Cc1ccc(NC(=O)Nc2cccc(C)n2)cc1 -1.16%, Cc1cc(C)c(NS(=O)(=O)c2ccc3c(c2)CC(C)N3C(=O)C2CCC2)c(C)c1 (stereo unspecified) -14.1%, CCOc1ccc(C2CC(=O)NC(NC(=O)c3cccc(Cl)c3)=N2)cc1 (stereo unspecified) -12.2%, COc1ccccc1Nc1nc(-c2ccc(F)cc2)c2c(n1)-c1ccccc1OC2 -5.63%, COc1ccccc1CNC(=O)CCCn1c(=O)c2ccccc2n(Cc2ccc(F)cc2)c1=O 19.7%, Cc1ccc(CCNC(=O)CN(c2cc(C)cc(C)c2)S(=O)(=O)c2c(C)noc2C)cc1 13.7%, COc1cccc(-n2ccn(CC(=O)NCc3ccc(C)cc3)c(=O)c2=O)c1 0.349%, COc1ccccc1NC(=O)c1c(C)cc(C)nc1SCC(=O)Nc1ccc(C)c(C)c1 -21.3%, CCOC(=O)c1nnn(CC(=O)Nc2cc(C)cc(C)c2)c1C(=O)OCC -16.5%, COc1ccccc1CNC(=O)c1cc2cccc3c2n1CC(C)S3 (stereo unspecified) -19.3%, COc1ccc(NC(=O)CC2C(=O)N(c3ccccc3)C(=O)N2C2CCCCC2)cc1 (stereo unspecified) -8.69%, CS(=O)(=O)N(CC(=O)NCCSCc1ccccc1)c1cc(C(F)(F)F)ccc1Cl -18.2%, O=C(Cn1cnc2onc(-c3ccc(F)cc3)c2c1=O)Nc1cccc(C(F)(F)F)c1 -53.7%, CCOC(=O)c1ccc(NC(=O)c2nc(SC(C)C)ncc2Cl)cc1 -7.15%, Cc1ccc(CNC(=O)CCCN2C(=O)CCn3nc(-c4cn(C)c5ccccc45)cc32)cc1 -6.28%, Cc1nc2c(-c3ccccc3)c(C)nn2c(C)c1CCC(=O)NCc1ccc(Cl)cc1 -8.27%, COc1ccc(CCNS(=O)(=O)c2ccc(N3CCCCS3(=O)=O)cc2)cc1OC -10.4%, Cc1ccc(C)c(Cn2cnc3c(cnn3-c3ccc(F)cc3)c2=O)c1 -10.3%, CCN(Cc1ccccc1)S(=O)(=O)c1ccc2c(c1)CCCN2C(C)=O -11.5%, CCc1ccc(NC(=O)N2c3ccccc3Sc3ccccc32)cc1 -8.95%, Cc1ccc(-c2c(C(=O)NCc3ccc(F)cc3)oc(=O)c3ccccc23)cc1 -9.02%, Cc1cc(-c2ccccc2)n2nc(-c3cccc(Br)c3)cc2n1 1.15%, CC1CCN(C(=O)CN2c3ccc(C(C)C)cc3-c3ccccc3S2(=O)=O)CC1 -13.4%, Cn1nc(C(=O)NCc2ccc(F)cc2)c2c1-c1ccccc1SC2 0.39%, COc1ccc(/C(C)=C/C(=O)O)c(OC)c1 -12.4%, Cc1ccc2cccc(NC(=O)c3ccc(-c4cccc(Cl)c4Cl)o3)c2n1 -5.52%, CSCCC(NS(=O)(=O)c1ccc2c(c1)oc(=O)n2C)C(=O)NCc1ccccc1 (stereo unspecified) -12.2%, COc1ccc(CCCc2nnc(SCC(=O)Nc3ccc(F)cc3)o2)cc1C -14.5%, CC(C)CN(CCNC(=O)c1cn(C)c2ccc(S(=O)(=O)N3CCOCC3)cc2c1=O)CC(C)C 8.98%, Cc1ccccc1NC(=O)Cn1c(=O)n(Cc2ccc3c(c2)OCO3)c(=O)c2ccc(C(=O)NC3CCCCC3)cc21 8.48%, CC(=O)c1cccc(NC(=O)c2oc(=O)c3ccccc3c2-c2ccccc2)c1 -4.39%, COc1ccc(N2CCN(C(=O)CCC(=O)NNc3nc4ccccc4c4nc(C)nn34)CC2)cc1 -6.48%, Cc1ccc(C)c(N2CCN(C(=O)c3ccc(Nc4nc5ccccc5n5nnnc45)cc3)CC2)c1 -16.8%
